The other results are listed elsewhere or left out.
system: T1, Caupolican (Caup) homeodomain DNA-binding domain; assay: PBM E-score (8-mer, recovered from the published 9-mer minima) (E-score (dimensionless, -0.5 to 0.5)); Drosophila protein; higher = stronger relative binding preference, active = 0.31 or more
T1 sequence: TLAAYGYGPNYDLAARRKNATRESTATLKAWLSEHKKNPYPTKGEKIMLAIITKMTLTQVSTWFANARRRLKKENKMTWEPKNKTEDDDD
Method in brief: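 Caup's homeodomain DNA-binding domain (residues 214-303) was made by in vitro transcription and translation and applied at 100 nM to custom-designed protein binding microarrays. Each value is an enrichment score that gives relative binding preference for a short DNA word, with higher meaning stronger. The 8-mer values were recovered from published 9-mer scores, each of which was the minimum of its two constituent 8-mer scores. A cutoff of 0.31 marks candidate sites.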

Sequence | PBM E-score
AGAAGACT | inactive: 0.00281
ATAATTTA | inactive: 0.167
GAGTCACC | inactive: -0.149
CGCTTGTA | active: 0.313
CTATTGTA | inactive: 0.229
AAAGGGAG | inactive: -0.15
ACCTAGGA | ≥ -0.00584
GCCGGCAA | inactive: -0.151
ATATCTTA | inactive: 0.178
ACACTGGG | inactive: 0.0164
CAGCTAAC | inactive: 0.0113
CCGATGTC | inactive: 0.165
TCATCTCA | inactive: -0.0128
GGAATGCC | inactive: -0.176
AACTTACT | inactive: 0.0845
ACGCCAGG | inactive: -0.156
CCGCCTCC | inactive: -0.288
AGCACCAG | inactive: -0.00722
TAACGAGA | ≥ 0.15
GCACCACA | inactive: -0.0694
CGGTGGCA | inactive: -0.192

Sequence | PBM E-score
AGATGTGC | inactive: 0.0218
AAAACCAT | inactive: 0.102
AAGTTCTA | inactive: -0.00833
CGACCTTA | inactive: -0.0959
AATAGGTA | inactive: 0.155
ATACATGA | active: 0.4
CGCCAAGA | inactive: -0.223
ACCTGCAA | inactive: -0.023
CAATTCTA | inactive: 0.0767
AGCTGTAC | inactive: 0.125
ATTCATGG | inactive: -0.039
GCCGCTAA | inactive: -0.173
CATTGAAA | inactive: 0.0811
CCCATGGA | inactive: 0.021
CACCGTGA | inactive: 0.00811
ACGCCGCT | inactive: -0.134
AAACCTAC | inactive: 0.126
ACCCGCAG | inactive: -0.142
AACATATT | active: ≥ 0.347
GGTCATTA | inactive: 0.0303
ATGATCAC | inactive: 0.142

Sequence | PBM E-score
TCTTCTAA | inactive: 0.0484
ACGCAAGC | inactive: 0.0155
AGAACCAT | inactive: 0.0755
TAATTTAA | inactive: 0.112
GATCTGCA | inactive: -0.0796
CATAGTCC | inactive: 0.0382
CTTCTCTA | inactive: -0.0517
AATACCTC | inactive: 0.00824
AGCAGTTA | inactive: -0.0121
AGAGTACC | inactive: 0.101
ACTAAGGG | inactive: -0.0778
AAGCCGCC | inactive: -0.241
CTCAAGAA | inactive: -0.0293
CCACTGCC | inactive: -0.171
CTTCTAGC | inactive: -0.0818
CATGGAAC | inactive: 0.0872
GGATGAAA | inactive: -0.0306
CCGAAGGC | inactive: -0.288
AGATGGCC | inactive: -0.151

From the supplement of paper PMC3724861
